{"source": "patent US20250059139A1", "about": "“COMPOUNDS FOR TREATMENT OF CANCER” (THE JOHNS HOPKINS UNIVERSITY, priority 2021, published 2025)", "system": "AHR protein in LNCaP cells", "experiment": "AHR translocation and downregulation in LNCaP cells (immunoblot)", "type": "cell-based, human", "protocol": "Western Blot Analysis. Analysis and quantification of protein expression via immunoblot was performed as previously described (Brennen 2021). All assays were performed with total cell lysates from an equal number (i.e., 100,000) of cells loaded per lane for accurate comparisons across cell lines and conditions.", "data": [{"smiles": "COc1cccc2c1c(O)c(C(=O)N(C)c1ccc(C(F)(F)F)cc1)c(=O)n2C", "note": "[TasQ, Tasquinimod]", "values": [{"measurement": "time to translocation of the AHR from the cytosol to the nucleus", "result": "< 30", "unit": "min"}]}]}
